Measurements reported in the supplement of paper PMC3334620.
In all, about 33,000 sequences were measured (“E-score (-0.5 to 0.5)”: median about -0.01, highest 2% from about 0.26 on). The list shows a part of the results.

These sequences were tested against Ste12 (UniProt P13574) (assay: PBM E-score (8-mer binding enrichment) (E-score (-0.5 to 0.5)); higher = stronger / more preferred TF binding; most listed sequences are background and not binding sites). Conditions: protein concentration: 200 nM; construct: GST-DNA-binding domain.
Outline: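 Yeast transcription factors carrying a GST tag, as full-length proteins or DNA-binding domains, were produced by PURExpress in vitro transcription/translation. About 100-200 nM protein was applied to universal all-10-mer Agilent arrays, double-stranded by primer extension on fresh or once-stripped slides. Bound protein was detected with fluorescent anti-GST, and scans were normalised with masliner. The Universal PBM Analysis Suite gave each ungapped eight-base word, pooled with its reverse complement, an E-score, a modified Wilcoxon-Mann-Whitney statistic.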

| Sequence | PBM E-score |
| --- | --- |
| TCGACCCA | -0.00739 |
| ATGCATGC | -0.142 |
| AACGGAAC | 0.195 |
| AGCAATAA | 0.152 |
| GACTTGCA | -0.0102 |
| AGGCAAAT | 0.0327 |
| AAAAACAG | 0.172 |
| ACCACAAT | 0.0368 |
| CCATAGAG | -0.0627 |
| GCCGTTCA | -0.0896 |
| GAGACCTA | -0.0109 |
| GCGACGAC | -0.0741 |
| AGAGTGGA | -0.165 |
| GAACGCGC | -0.042 |
| AGGTGAAA | 0.235 |
| ACTCACAA | -0.112 |
| CAATGCCC | -0.153 |
| CACCGATC | -0.0704 |
| CCACTAGC | -0.168 |
| AATTCATG | 0.255 |
| CCACAAGG | -0.107 |
| GCGGATCC | -0.0376 |

| Sequence | PBM E-score |
| --- | --- |
| GGCCAACA | -0.0693 |
| ACACAGAT | -0.00222 |
| CCCAGCGA | -0.0316 |
| ACGAGTTC | -0.0134 |
| CTACCTTC | 0.0124 |
| CAGCAATG | -0.104 |
| AGACGGTG | -0.117 |
| CAAGACAG | 0.167 |
| ACTACCCG | -0.0722 |
| CTCATCGA | 0.00039 |
| AAAGCAGC | -0.0185 |
| AACGCCAC | 0.0348 |
| CATGATTA | 0.0888 |
| CAAAGACG | -0.061 |
| ATGGGGAC | -0.0895 |
| ACCTCTCA | -0.0747 |
| CTACTAAC | 0.0522 |
| GCCGCCGC | -0.0603 |
| ATGCCGAC | 0.0109 |
| ATGCCGTG | -0.0726 |
| AAGCTAGC | -0.242 |
| AGGCTGAC | 0.0313 |

| Sequence | PBM E-score |
| --- | --- |
| CCATAATC | 0.139 |
| CAGGCGTC | -0.209 |
| ACTGACAG | 0.153 |
| ATGAACAG | -0.0823 |
| AGCGTTAG | -0.167 |
| CCCTTAGG | -0.252 |
| GTGAAAAA | 0.232 |
| AGAGGAAC | -0.0942 |
| CTCCTCCA | 0.0617 |
| ATGAATAG | -0.0925 |
| GTTATTTA | 0.107 |
| AGCTTAGC | -0.197 |
| AAAGCTGA | 0.0643 |
| AGGTTTCC | -0.0692 |
| CAATCGAC | -0.0787 |
| ACGAGAGT | -0.0106 |
| GCCCGTAA | -0.0256 |
| AGAGTGCG | 0.0047 |
| AGATCTAA | 0.0181 |
| CGACCGAA | 0.00328 |
| GAAGTTGA | 0.0671 |
| AAGGGTAT | 0.0611 |

| Sequence | PBM E-score |
| --- | --- |
| GGAATAGA | -0.0989 |
| CAGAGAAG | 0.104 |
| AATTAGCG | 0.12 |
| AGAACGTA | -0.0299 |
| ACTTCCAG | -0.19 |
| AGTAGCCG | -0.0626 |
| CCCGCGCC | 0.168 |
| TCTCAACA | 0.18 |
| GAACTCGC | -0.196 |
| AGAGTAAT | 0.191 |
| TCATTGCA | -0.0373 |
| AGGGACAG | -0.203 |
| ACCGCTGG | -0.148 |
| CGCCCAAC | 0.0194 |
| CAATGCGA | -0.00861 |
| CCTCAAAC | 0.148 |
| CCACCCCG | 0.161 |
| AACAATGA | 0.0731 |
| CCCTCCCC | 0.333 |
| ATTCTAAG | 0.0129 |
| AATGTCTC | 0.14 |
| GAAGAGGA | -0.212 |

| Sequence | PBM E-score |
| --- | --- |
| ACTCTTCT | -0.14 |
| AGGTCCGA | -0.0663 |
| CTAGCTCC | -0.226 |
| CATTCCCA | -0.00441 |
| ATGCCGCA | 0.0392 |
| ACCTGGAA | 0.246 |
| GAGATTGA | 0.0793 |
| ACCATAAG | -0.16 |
| ATATCTGA | 0.103 |
| AGACGACA | -0.0597 |
| GTTGAAGA | -0.0561 |
| ACCATTTA | 0.0557 |
| CTGCGGTA | -0.00141 |
| CCAATGCG | -0.244 |
| GAATATTA | 0.235 |
| GGGCGTAC | 0.0105 |
| TTACCTAA | 0.114 |
| CGCACGTA | -0.104 |
| ACGCCCCC | 0.147 |
| CCCAGCTA | -0.102 |
| GCTCATCC | -0.171 |
